# Results from PubChem BioAssay AID602310 (National Center for Advancing Translational Sciences (NCATS), 2012).
# Among all 410,000 compounds or so, about 310 (0.076%) were called active. Inconclusive results, whose numbers are uncertain, are shown with a selection of clear calls. The call rests on the fitted dose curve; in most records, active means well fitted curve in the direction sought with a large enough effect; inconclusive means small, poorly fitted or top-dose-only effect; inactive means flat fitted curve, though single readings scatter. Where the call is inconclusive, the potency comes from a doubtful curve fit.
# Molecular target: DNA dC->dU-editing enzyme APOBEC-3G (Homo sapiens) (UniProt Q9HC16)
# Chain of UniProt Q9HC16 (Q9HC16 whole entry, looked up): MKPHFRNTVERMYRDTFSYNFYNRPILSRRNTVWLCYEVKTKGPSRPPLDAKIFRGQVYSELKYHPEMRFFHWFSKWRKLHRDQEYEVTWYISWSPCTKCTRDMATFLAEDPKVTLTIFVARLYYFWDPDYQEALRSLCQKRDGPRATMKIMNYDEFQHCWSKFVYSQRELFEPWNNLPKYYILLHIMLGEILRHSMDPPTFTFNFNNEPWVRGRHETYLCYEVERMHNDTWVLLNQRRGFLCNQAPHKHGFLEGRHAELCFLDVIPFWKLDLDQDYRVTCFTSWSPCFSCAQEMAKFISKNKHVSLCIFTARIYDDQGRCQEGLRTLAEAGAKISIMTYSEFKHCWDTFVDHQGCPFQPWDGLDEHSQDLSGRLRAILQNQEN
# Experiment: qHTS for Inhibitors of Vif-A3G Interactions: qHTS; further: nearly all actives have a fitted effect of over 60% in size;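 on activity, negative = active: hits raise eYFP signal because A3G escapes Vif-driven loss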
# Settings: HeLa A3G-eYFP + Vif (tagged APOBEC3G with the HIV-1 protein that degrades it), YFP fluorescence, overnight; series mostly up to 46.1 µM; activity, negative = active: at the top concentration
# Outline: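 HeLa cells stably expressing Vif and C-terminally eYFP-tagged A3G, seeded overnight at 37 deg C, then exposed to compound by pintool overnight at 37 deg C. Rise in yellow fluorescence (Ex 488/Em 500-530, Acumen) marks blocked Vif-driven A3G degradation.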
# On the % scale 0 is the no-effect control and ±100 the full control effect; potency means the concentration at half of the fitted maximal effect; tags describe the fitted curve by direction and shape.
SMILES,Potency,"activity, negative = active"
O=c1[nH]c2ccccc2c(=O)n1-c1ccc(Cl)cc1Cl,"inconclusive: 31.6 µM [inhibitor, partial curve, poor fit]",–
CN(CCc1ccccc1)Cc1c[nH]c2ccccc12,"inconclusive: 15.8 µM [inhibitor, single point]",–
O=C1NC(=O)C(=Cc2ccc(N3CCOCC3)cc2)C(=O)N1,–,inactive: 9.63%
COc1cccc(C2=CC(c3cc(Br)ccc3F)n3nnnc3N2)c1 (stereo unspecified),"inconclusive: 1.58 µM [inhibitor, full curve, poor fit]",–
CCOc1ccccc1N=C1SCCCN1C,–,inactive: 2.33%
COc1ccc(C2NCc3ccc4c(c3-n3cccc32)OCO4)cc1O (stereo unspecified),"inconclusive: 1.58 µM [inhibitor, full curve, poor fit]",–
COCCNC(=O)c1c(NC(=O)c2ccco2)n(Cc2ccccc2)c2nc3ccccc3nc12,"inconclusive: 12.6 µM [inhibitor, partial curve, poor fit]",–
C=C(C)[C@@H]1CC[C@]2(C(=O)O)CC[C@]3(C)C(CCC4[C@@]5(C)CC[C@H](O)C(C)(C)C5CC[C@]43C)C12 (stereo partly specified),"inconclusive: 8.91 µM [inhibitor, partial curve]",–
CC1=NN(c2ccccc2)C(=O)C1/C=C1\C(=O)NC(=O)N(c2ccc(C)c(C)c2)C1=O (stereo unspecified),–,inactive: -2.33%
NC(N)=Nc1ccc2[nH]c3c(c2c1)C[C@@]1(O)[C@H]2Cc4ccc(O)c5c4[C@@]1(CCN2CC1CC1)[C@H]3O5,"inconclusive: 22.4 µM [inhibitor, single point]",–
Cc1ccc(OCC(=O)N2CCN(Cc3cccnc3)CC2)cc1,–,inactive: -6.83%
O=Cc1c(C(=O)O)n(Cc2ccc(Cl)cc2)c2ccccc12,"inconclusive: 10 µM [inhibitor, partial curve]",–
CNS(=O)(=O)c1ccc(-c2ccc(C=C3C(=O)NC(=O)NC3=O)o2)cc1,–,inactive: -1.38%
COc1cc2c(c(OC)c1OC)-c1ccc(O)c(=O)cc1C(NC(C)=O)CC2 (stereo unspecified),"inconclusive: 1 µM [inhibitor, full curve, poor fit]",–
S=C(NCCc1ccccc1)N1Cc2ccccc2-n2nncc2C1,–,inactive: -5.54%
O=c1[nH]c2ccccc2n1C1CCN(C(c2cccs2)c2nnnn2-c2ccc3c(c2)OCCO3)CC1 (stereo unspecified),"inconclusive: 2.82 µM [inhibitor, single point]",–
COCCNC(=O)c1c(N)n(CCC(C)C)c2nc3ccccc3nc12,–,inactive: -9.16%
O=C1NC(=O)C2(Cc3ccccc3N3CCOCC32)C(=O)N1c1ccccc1 (stereo unspecified),"inconclusive: 35.5 µM [inhibitor, single point]",–
CC(=O)O[C@@]12CO[C@@H]1C[C@H](OC1OCC(O)C(O)C1O)[C@@]1(C)C(=O)[C@H](O)C3=C(C)[C@@H](OC(=O)[C@H](O)[C@@H](NC(=O)c4ccccc4)c4ccccc4)C[C@@](O)([C@@H](OC(=O)c4ccccc4)C12)C3(C)C (stereo partly specified),"inconclusive: 2 µM [inhibitor, full curve]",–
C=CCn1c(O)c(C=NCCN2CCNCC2)c(=O)[nH]c1=O,–,inactive: -0.451%
O=c1c2ccccc2nc(/C=C/c2ccc([N+](=O)[O-])o2)n1-c1ccc(O)cc1,"inconclusive: 5.62 µM [inhibitor, full curve, poor fit]",–

SMILES,Potency,"activity, negative = active"
COc1cc2c(cc1/C=C/[N+](=O)[O-])OCO2,"inconclusive: 17.8 µM [inhibitor, partial curve, poor fit]",–
COc1ccccc1N1C(=O)NC(=O)/C(=C/c2ccc3c(c2)Cc2ccccc2-3)C1=O,–,inactive: -15.1%
c1ccc(Nc2cccc3ccccc23)cc1,"inconclusive: 15.8 µM [inhibitor, single point]",–
O=C(CSc1nnc(NC(=O)c2ccccc2F)s1)NCc1ccc(F)cc1,"inconclusive: 10 µM [inhibitor, partial curve, poor fit]",–
COC(=O)c1cn(C(=O)c2cccc3ccccc23)c2ccccc12,"inconclusive: 3.16 µM [inhibitor, full curve]",–
C[CH2][Hg][S]c1ccccc1C(=O)O,–,inactive: -21.3%
Cc1ccc(/C=C2\C(=O)NC(=S)N(c3ccccc3F)C2=O)s1,"inconclusive: 22.4 µM [inhibitor, single point]",–
O=c1oc2ccccc2c(O)c1[C@H]1c2ccc(O)cc2Oc2c1c(=O)oc1ccccc21,"inconclusive: 15.8 µM [inhibitor, single point]",–
CCN1C(=O)C(=C/C=C/c2ccco2)C(=O)N(CC)C1=S,"inconclusive: 20 µM [inhibitor, partial curve, poor fit]",–
Cc1ccccc1CN1Cc2cnnn2-c2ccccc2C1C#N (stereo unspecified),"inconclusive: 35.5 µM [inhibitor, single point]",–
CN1CCC2(CC1)C(C#N)=C(N)NC(S)=C2C#N,"inconclusive: 17.8 µM [inhibitor, single point]",–
N#Cc1c(Cl)c(Cl)c(Cl)c(C#N)c1Cl,"inconclusive: 0.631 µM [inhibitor, full curve, poor fit]",–
CCn1c(O)c(/C=N/NC(=O)c2ccncc2)c(=O)n(CC)c1=S,"inconclusive: 11.2 µM [inhibitor, partial curve, poor fit]",–
COc1cc([N+](=O)[O-])c2ncccc2c1[N+](=O)[O-],"inconclusive: 35.5 µM [inhibitor, single point]",–
CCc1cc2c(s1)NC(=O)CN=C2c1cccs1,"inconclusive: 11.2 µM [inhibitor, partial curve]",–
COc1cccc(CCNCc2cccc(C(F)(F)F)c2)c1,–,inactive: 1.34%
Cc1nn(Cc2ccccc2)c(C)c1C(=O)OCC(=O)Nc1ccccc1SCC#N,"inconclusive: 20 µM [inhibitor, partial curve, poor fit]",–
CCN(CC)c1ccc(/C=C2\C(=O)NC(=S)N(C)C2=O)o1,"inconclusive: 12.6 µM [inhibitor, partial curve, poor fit]",–
CCN1C(=O)NC(=O)/C(=C\c2cn(CC(=O)N3CCCCC3C)c3ccccc23)C1=O (stereo unspecified),–,inactive: -8.34%
Cc1ccnc(-n2c(C)cc(/C=C3\C(=O)NC(=S)N(C)C3=O)c2C)c1,"inconclusive: 10 µM [inhibitor, partial curve, poor fit]",–
COc1ccc(OC)c(N=Cc2c(O)n(Cc3ccccc3)c(=S)[nH]c2=O)c1,–,inactive: -17.7%

SMILES,Potency,"activity, negative = active"
CCCCCn1c(NC(=O)c2ccco2)c(C(=O)OCC)c2nc3ccccc3nc21,active: 11.2 µM,–
Nc1ccc2c(c1)Cc1cc([N+](=O)[O-])ccc1-2,"inconclusive: 11.2 µM [inhibitor, partial curve, poor fit]",–
O=c1[nH]c2ccccc2n1C1CCN(C(c2cc3ccccc3o2)c2nnnn2Cc2ccccc2)CC1 (stereo unspecified),"inconclusive: 6.31 µM [inhibitor, partial curve, poor fit]",–
COC1CCC(OC2CC(C3(C)CCC4(CC(O)C(C)C(C(C)/C=C(\C)C(=O)C(C)CC(C)C(=O)O)O4)O3)OC3(OC(C4OC(O)(CO)C(C)CC4C)CC3C)C2C)OC1C (stereo unspecified),"inconclusive: 3.16 µM [inhibitor, full curve]",–
O=C1NC(=O)N(Cc2ccco2)C(=O)/C1=C/c1cccn1CCOc1ccccc1Cl,"inconclusive: 3.16 µM [inhibitor, partial curve, poor fit]",–
Cc1cccc(-n2c(O)c(/C=N/Nc3nc4c(c(=O)n(C)c(=O)n4C)n3C)c(=O)[nH]c2=S)c1,–,inactive: -5.19%
CN1CCC(O)(c2cccs2)C(C(=O)c2cccs2)C1 (stereo unspecified),–,inactive: -13.6%
C=CCn1c(=O)c(C=Nc2cccc([N+](=O)[O-])c2)c(O)n(CCCC)c1=O,"inconclusive: 35.5 µM [inhibitor, single point]",–
N#CC1=C(N)Oc2c(c(=O)oc3ccccc23)C1c1ccccc1OC(=O)c1cccs1 (stereo unspecified),"inconclusive: 17.8 µM [inhibitor, single point]",–
CC(=O)O[C@H]1C(=O)[C@@]2(C)C([C@H](OC(=O)c3ccccc3)[C@]3(O)C[C@H](O)C(C)=C1C3(C)C)[C@]1(OC(C)=O)CO[C@@H]1C[C@H]2O (stereo partly specified),"inconclusive: 10 µM [inhibitor, partial curve, poor fit]",–
CN(C)c1ccc(/C=C/C=C2/C(=O)NC(=O)N(c3ccccc3)C2=O)cc1,"inconclusive: 2.82 µM [inhibitor, full curve, poor fit]",–
CCOc1ccc(-n2c(O)c(N=Nc3ccc([N+](=O)[O-])cc3)c(=O)[nH]c2=O)cc1,"inconclusive: 35.5 µM [inhibitor, single point]",–
COc1cccc(OC)c1C1=NCC(=O)Nc2c1oc1ccc(Br)cc21,"inconclusive: 1 µM [inhibitor, full curve, poor fit]",–
CC/C(=N\NC(=O)c1ccccc1)c1c(O)n(Cc2ccccc2)c(=O)[nH]c1=O,"inconclusive: 15.8 µM [inhibitor, single point]",–
CCCCn1c(N)c(N(CCOC)C(=O)CN2CC=C(c3ccccc3)CC2)c(=O)[nH]c1=O,–,inactive: -8.83%
O=C1NC(=S)N(c2ccccc2F)C(=O)/C1=C\c1cccs1,"inconclusive: 14.1 µM [inhibitor, single point]",–
O=C(O)c1cc[c]([Hg][Cl])cc1,"inconclusive: 7.08 µM [inhibitor, full curve, poor fit]",–
O=C1NC(=O)N(c2ccc3c(c2)OCO3)C(=O)/C1=C/c1ccc(N2CCCCC2)o1,"inconclusive: 12.6 µM [inhibitor, partial curve, poor fit]",–
C[C@]12CC[C@@H]3c4cc(O)c(O)cc4CC[C@H]3[C@@H]1CC[C@@H]2O,"inconclusive: 7.08 µM [inhibitor, partial curve, poor fit]",–
